These results are taken from the supplement of paper PMC11417369.

The list shows a part of the results.

For this test, the system named is PfHDP1 homeodomain (GST-tagged). The test can be described thus: gcPBM binding intensity (ln(normalized median fluorescence intensity)); higher = stronger DNA binding. The method, boiled down:
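Binding intensity values are the highest Masliner-normalised natural-log median intensity among replicate spots of either probe orientation. The binding step lasted 1 h in 1× PBS with 1% milk, 0.2 mg/ml BSA, 0.5% salmon testes DNA and 0.03% Triton X-100, using GST-tagged P. falciparum DNA-binding domains expressed in E. coli on an Agilent 4 × 180k array of primer-extended double-stranded 36-bp intergenic genomic probes plus negative controls. Alexa488 anti-GST antibody and a 488 nm scan detected bound protein.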
Regarding “AAAATACATAAACACACACACACACCGATATATATA [CACACA_site9186]”, the “gcPBM binding intensity (ln)” value stood at 7.14. The value for “TAAACAGAAGCACATACACACACTCAAAAAAAAAAA [CACACA_site3051]” was 6.46; that for “AATATTTATAAATTTACACACACACGGGTGAACATA [CACACA_site6979]” was 6.75. As to “TTTAATTCCATAAGTAAACACACAAATGCCAAAATT [CACACA_site9049]”, the “gcPBM binding intensity (ln)” value was 6.94. The value for “ATTCTAAATTAAAATACACACATATATACATAATAT [CACACA_site2792]” was 6.72. For “CAATTTGGTGTACAGGTGCACATGCCTCACGATAAA [GTGCAC_site9650]” the value was 9.16. The value for “AAAAAAAAAAAAAAATGTACATATTAAGTATAATTA [XGTACX_site4616]” was 6.23; that for “GAAAAATGTAAATACATATATGTACACAAATATATA [GTGCAC_negctrl_site557]” was 6.59; that for “TTAGCTCAATTTTTGGGTACACACAAATGTATAATA [XGTACX_site5003]” was 6.59. With “TATAGTTTTATTATTTATGTGTTAAAATTATACAAG [TGCATGCA_negctrl_site246]”, the “gcPBM binding intensity (ln)” value came to 6.17. Regarding “CATACCATACATAAAACACACAAAATTTACATAATA [CACACA_site3100]”, the “gcPBM binding intensity (ln)” value is 6.64. The value for “TTCCTCTTAATATGTGCACACTAAATTATAACATAA [CACACA_site3260]” was 11.1; that for “TTCTGCAGCAATGTTTTTTTTAAATATTTATATGGT [CACACA_negctrl_site1815]” was 6.51.

On to “AAAAAAATAACAAAGTGTACTTTTATATTTTACATA [XGTACX_site8954]”, for which the “gcPBM binding intensity (ln)” value is 5.78. The value for ACCCATTTTAATTTAGTGCACATTTTACCTTTATAC was 10.1; that for “GCTAGTTTTTTTTGGCGTACAGTACCGGTTTACTTT [XGTACX_site2606]” was 6.57. For “AAAAAAAAATATCACACACACATAAATATAAACCAA [CACACA_site2279]” the value was 6.98. Regarding “AGGCACTTATAATAATGTACATAAATAAAAAGAAAA [XGTACX_site6037]”, the “gcPBM binding intensity (ln)” value came to 6.73. Consider “TAAAACATCAAGGGGTGTACAAAAAAGATGAACAGG [XGTACX_site6929]”, for which the “gcPBM binding intensity (ln)” value was 6.81. Regarding “AAAAAAAAAAAAACTACACACATAAAATATATTGTG [CACACA_site805]”, the “gcPBM binding intensity (ln)” value was 6.4. The value for “AGAGCATAATAAAACACACACATACATACATATATA [CACACA_site935]” was 8.5; that for “ATTGGGTTCATCAGCACACACAACATCATGTAATAA [CACACA_site5093]” was 6.38; that for “TATAAATATATATGTACACACATATACATGTTGAAT [CACACA_site3118]” was 6.69. With “TATAAACATAAATATACACACAAACATCTATGTATT [CACACA_site4804]”, the “gcPBM binding intensity (ln)” value worked out at 6.52. As for “TATGTATGCCTGTTTTGTACTTAAGAAAATGTTGCT [XGTACX_site8443]”, the “gcPBM binding intensity (ln)” value came to 6.34. For “AAAAAAAAAAAAAAAAGTACATAATATAAAATCTAA [XGTACX_site6019]” the value was 6.32; for “TATGTAAAAACAGGCACACATATATCATATATATAT [CACACA_site619]”, 8.2; for “TTATTTTTTAAAAGTAGTACAAATTTTTATAGAAAA [XGTACX_site7407]”, 6.27.

“CAATATTTGTTATGGGTGCAAACCGCATATATATAA [GTGCAC_site9543]”: the “gcPBM binding intensity (ln)” value was 9.01.

In the case of “ATTCCTTGGTTGTATAGTACTTTGGTTAAACATAAA [XGTACX_site6967]”, the “gcPBM binding intensity (ln)” value was found to be 6.88. The value for “TAAAAAAGAAAATATATACACACCAAAAAAAAAAAA [CACACA_site3146]” was 6.28; that for “ATTAAATCCGCACGCACACACACATATTAATAAAAA [CACACA_site3992]” was 7.74. For “AATATTAAAGAATAATGTACAAAATAAAAGCAAAGA [XGTACX_site3550]” the value was 7.55.

As for “ACATGTCTTAAAAGACGTACATATAAAAGAACCCTA [XGTACX_site8940]”, the “gcPBM binding intensity (ln)” value was found to be 6.88.

Regarding “AAACAAAAAAATTGAAATAAAATGAAGTAAATGAAC [TGCATGCA_negctrl_site129]”, the “gcPBM binding intensity (ln)” value stood at 7.14. For “TTAAATATATGTAATACGCACACTTAATATTTTGAG [CACACA_site4170]” the value was 7.01; for “AAAAAAAAAAAAAAAACATGCAATAAAGTGTGCGTA [TGCATGCA_site982]”, 7.36. On to “TTTTGGTGGGTTACAAGTACTCAAAATGGATTGTTA [XGTACX_site1951]”, for which the “gcPBM binding intensity (ln)” value came out at 6.62. For “TTTCGAAAAACAACAAGAAAAAAAAAAAAAAAAAAA [XGTACX_negctrl_site449]” the value was 6.24.

With “TCACATACATTACTTACACACCATATTGATATATAC [CACACA_site6353]”, the “gcPBM binding intensity (ln)” value was 7.01. For the sequence “TATCTCATAGTATACACACACACACGCGCACATATA [CACACA_site6917]”, the “gcPBM binding intensity (ln)” value is 7.63. For “TGTATATATTATATTTGTACATATAAAACTATATGT [XGTACX_site4782]” the value was 6.35; for “ATTAACATTTTCGTATGTACATATATAATATATGTT [XGTACX_site7184]”, 6.86; for “TTTCCAAATACAACTACACACAAACAAAAATTATAT [CACACA_site4641]”, 7.02.
